Experimental data reported in PubChem BioAssay AID1347120 (National Center for Advancing Translational Sciences (NCATS), 2019).
The campaign covered roughly 390,000 compounds. About 930 (0.24%) were called active. This list was built around the results that the source calls inconclusive (neither active nor inactive); the mix of calls is not that of the screen. The call rests on the fitted dose curve; in most records, active means well fitted activation curve with a large enough effect; inconclusive means small, poorly fitted or top-dose-only effect; inactive means no such curve, though single readings can be large or run the other way. A potency beside an inconclusive call is a rough fit, not a confirmed value.
Potency means the concentration at half of the fitted maximal effect; tags describe the fitted curve by direction and shape.

Assay: qHTS for Suppressors of FUS Proteinopathy: Primary screen using FUS-linked yeast assay; further: nearly all actives have a fitted effect of over 55% in size;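 on growth rescue (activation): plate controls were DMSO vehicle for no effect and reference control for full effect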
Conditions: S. cerevisiae FUS-expressing, OD600, 24 h; Potency: growth rescue; growth rescue (activation): at 76.6 µM (top of the series)
Procedure, shortened: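 Steps: raffinose overnight preculture; dilution to OD 0.005 in 2% galactose minimal medium; compound addition (concentration series); 24hr at 30C, 99% humidity; absorbance read at 600 nm.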
With `COc1cc(OC)c2c(c1)O[C@@H](c1ccc(OC)c(OC)c1)[C@H](O)C2` the Potency was inconclusive: 39.8 µM [activator, single point]. In the case of `COc1ccc(-n2nnnc2C(CCSC)N2CCC3(CC2)C(=O)NCN3c2ccccc2)cc1` (stereo not drawn), the Potency is reported as inconclusive: 15.8 µM [activator, partial curve, poor fit]. With `CN1C(=O)C(=Cc2ccccc2OCc2ccc(C(=O)O)cc2)C(=O)N(C)C1=O` the “growth rescue (activation)” value was inactive: 23.4%. For `COC(=O)[C@@H]1N=C(c2ccc(OC)cc2)O[C@]12C(=O)N(Cc1ccc(OC)cc1)c1ccccc12`, the Potency was active: 14.1 µM. For `COc1ccc(C(c2nnnn2-c2c(C)cccc2C)N2CCC(n3c(=O)[nH]c4ccccc43)CC2)cc1` (stereo not drawn), the Potency was inconclusive: 12.6 µM [activator, partial curve]. In the case of `C=CCn1c(O)c(/C=C2/C=c3ccccc3=N2)c(=O)[nH]c1=S`, the Potency is reported as inconclusive: 50.1 µM [activator, single point]. With `CCOC(=O)CC[C@@H]1CC[C@]2(CCCN(Cc3ccncc3)C2)O1` the “growth rescue (activation)” value was inactive: -3.86%. With `COC(=O)C1=C(c2ccc(-c3ccccc3)c(F)c2)C[C@@H]2CC[C@H]1N2C(=O)N1CCOCC1` the Potency was inconclusive: 35.5 µM [activator, single point]. In the case of `FC(F)(F)c1ccc2c(c1)ncn2C1CCN(Cc2nnnn2C2CCCCC2)CC1`, the Potency is reported as inconclusive: 35.5 µM [activator, single point]. With `C=CCOC(=O)COc1cc(C)cc2oc(=O)c3c(c12)CCC3` the Potency was inconclusive: 7.94 µM [activator, partial curve, poor fit]. For `CCOC(=O)c1c(NC(NC(=O)CF)C(Cl)(Cl)Cl)sc2c1CCCC2` (stereo not drawn), the “growth rescue (activation)” value was inactive: 27%. In the case of `COc1cccc(C(c2nnnn2C2CCCC2)N2CCC3(CC2)C(=O)NCN3c2ccccc2)c1OC` (stereo not drawn), the Potency is reported as inconclusive: 12.6 µM [activator, partial curve, poor fit]. For `Cc1ccc(-c2nc(CN3C(=O)CN=C(c4ccccc4Cl)c4cc(Cl)ccc43)c(C)o2)cc1`, the Potency was inconclusive: 35.5 µM [activator, single point]. With `COC(=O)C1=C(c2ccc(F)cc2OCc2ccccc2)C[C@@H]2CC[C@H]1N2C(=O)NC(C)C` the Potency was inconclusive: 25.1 µM [activator, partial curve, poor fit]. With `Cc1ccc2c(c1)c(=O)c1c3n2CCN(CC2CO2)C3CC1` (stereo not drawn) the Potency was inconclusive: 50.1 µM [activator, single point]. With `COc1ccc(C(=O)CC(c2ccc3c(c2)OCO3)c2c(O)c3ccccc3oc2=O)cc1OC` (stereo not drawn) the Potency was inconclusive: 25.1 µM [activator, single point]. For `CCC(C)(C)n1nnnc1C(c1cccs1)N1CC=C(c2ccc(F)cc2)CC1` (stereo not drawn), the “growth rescue (activation)” value was inactive: 41.1%. With `Cn1cnc([N+](=O)[O-])c1Sc1ccc([N+](=O)[O-])cc1` the “growth rescue (activation)” value was inactive: -22.2%. In the case of `O=C(O)COc1ccccc1`, the “growth rescue (activation)” value is reported as inactive: -39.1%. For `C[C@]12CCC(OC(=O)CCC(=O)O)CC1=CCC1C2CC[C@]2(C)C(=O)CCC12` (stereo partly drawn), the “growth rescue (activation)” value was inactive: 20.2%. In the case of `Cc1cc(/C=C2\C(=O)NC(=O)N(c3ccc(Br)cc3)C2=O)c(C)n1-c1cc(C(=O)O)cc(C(=O)O)c1`, the Potency is reported as inconclusive: 31.6 µM [activator, single point]. With `CN(C)c1ccc(NC(=O)CN2C(=O)CN=C(c3ccccc3)c3cc(Cl)ccc32)cc1` the Potency was inconclusive: 31.6 µM [activator, partial curve, poor fit]. For `N=C1c2ccccc2CN1c1cccc([N+](=O)[O-])c1`, the “growth rescue (activation)” value was inactive: -2.9%. With `CCCCOc1ccc(C(C)=O)cc1Cc1c(O)[nH]c(=S)[nH]c1=O` the “growth rescue (activation)” value was inactive: -4.78%. For `O=c1[nH]c(CN2CC=C(c3ccccc3)CC2)nc2scc(-c3cccs3)c12`, the Potency was inconclusive: 28.2 µM [activator, single point]. In the case of `O=C(CN1C(=O)[C@@H](Cc2ccc(O)cc2)N=C(c2ccccc2)c2ccccc21)NC1CCCCC1`, the Potency is reported as inconclusive: 25.1 µM [activator, single point]. For `Nc1c(C(=O)OCc2ccccc2)c2nc3ccccc3nc2n1Cc1cccs1`, the “growth rescue (activation)” value was inactive: 15.7%. In the case of `COC(=O)C1=C(c2ccc(C(C)=O)cc2)C[C@@H]2CC[C@H]1N2C(=O)N1CCC(O)(c2ccc(Cl)cc2)CC1`, the Potency is reported as inconclusive: 22.4 µM [activator, single point]. In the case of `CSCCC(N=Cc1c(O)n(-c2ccc(Br)cc2)c(=O)[nH]c1=O)C(=O)OC(C)(C)C` (stereo not drawn), the Potency is reported as inconclusive: 50.1 µM [activator, single point]. For `O=P(CN1CCN(c2ccccc2)CC1)(N1CCCCC1)N1CCCCC1`, the growth rescue (activation) was inconclusive: 67.4% [activator]. In the case of `O=C1NC(=O)C2(Cc3ccccc3N3CCCC32)C(=O)N1c1ccc(Cl)cc1` (stereo not drawn), the Potency is reported as inconclusive: 17.8 µM [activator, partial curve, poor fit]. With `CCOC(=O)[C@]12Cc3ccc(C)cc3[C@H]1N(C1CCCCC1)C(=O)c1ccccc12` the Potency was inconclusive: 15.8 µM [activator, partial curve, poor fit]. In the case of `CC12CCC(=O)C=C1CCC1C2CCC2(C)C(O)CCC12` (stereo not drawn), the “growth rescue (activation)” value is reported as inactive: -11.3%. For `CCc1ccc(-n2nc(C)c3c2NC(=O)CSC3c2ccccc2C)cc1` (stereo not drawn), the Potency was inconclusive: 28.2 µM [activator, single point]. In the case of `COC(=O)C1=C(c2ccc(-c3ccccc3)c(F)c2)C[C@@H]2CC[C@H]1N2C(=O)NCCCOC(C)C`, the Potency is reported as inconclusive: 31.6 µM [activator, single point]. With `COC(=O)C1=C(c2c(C)noc2C)C[C@@H]2CC[C@H]1N2C(=O)NCc1ccc(C(F)(F)F)cc1` the Potency was inconclusive: 31.6 µM [activator, partial curve, poor fit]. In the case of `COC(=O)C1=C(c2cc3ccccc3s2)C[C@@H]2CC[C@H]1N2C(=O)NC1CCCCC1`, the Potency is reported as inconclusive: 50.1 µM [activator, single point]. For `CCCNC(=O)N1[C@H]2CC[C@@H]1C(C(=O)OC)=C(c1ccc(-c3ccccc3)c(F)c1)C2`, the Potency was inconclusive: 28.2 µM [activator, single point]. With `CC1=CC(=O)OC2CC3OC4C[C@@H](C)C5OC6CC7O[C@]8(C)C/C=C\C9OC%10CC%11OC(CC(C)C%12OCCO%12)CC(O)[C@]%11(C)OC%10CC9OC8C[C@]7(C)O[C@]6(C)CCC5OC4C[C@]3(C)OC12` (stereo partly drawn) the Potency was active: 10 µM. In the case of `CC1C(OC(=O)CCC(=O)NC(C)(C)CO)O[C@H]2OC3(C)CC[C@H]4[C@H](C)CCC1C24OO3` (stereo partly drawn), the “growth rescue (activation)” value is reported as inactive: 14.6%. For `COC(=O)C1=C(c2cccc(OCc3ccccc3)c2)C[C@@H]2CC[C@H]1N2C(=O)NCc1ccc(OC)cc1`, the Potency was inconclusive: 7.94 µM [activator, full curve]. For `Nc1c(Br)cc([N+](=O)[O-])cc1[N+](=O)[O-]`, the “growth rescue (activation)” value was inactive: -28.3%. For `Cc1c(C(c2ccc(F)cc2)c2c(O)c3ccccc3oc2=O)c(=O)n(-c2ccccc2)n1C` (stereo not drawn), the Potency was inconclusive: 28.2 µM [activator, partial curve, poor fit]. In the case of `CCOc1ccc(N2C(=O)/C(=C\c3cccs3)C(=O)NC2=S)cc1`, the Potency is reported as inconclusive: 39.8 µM [activator, partial curve, poor fit]. In the case of `CCOc1ccc(C2CC(c3c(O)n(C)c(=O)n(C)c3=O)=NN2)cc1` (stereo not drawn), the Potency is reported as inconclusive: 14.1 µM [activator, partial curve, poor fit]. With `CC(C)(C)NC(=O)CN1C(=O)[C@@H](Cc2c[nH]c3ccccc23)N=C(c2ccccc2)c2ccccc21` the Potency was inconclusive: 22.4 µM [activator, partial curve, poor fit]. For `C=CCN1C(=O)/C(=C/c2cccs2)C(=O)NC1=S`, the Potency was inconclusive: 25.1 µM [activator, partial curve]. In the case of `COc1ccc(-c2nc3ccc(C(=O)N4CCC5(CC4)OCCO5)cc3nc2-c2ccc(OC)cc2)cc1`, the Potency is reported as inconclusive: 39.8 µM [activator, single point]. In the case of `O=c1oc2ccccc2c(O)c1C(c1ccc([N+](=O)[O-])cc1)c1c(O)c2ccccc2oc1=O`, the “growth rescue (activation)” value is reported as inactive: 38.3%. For `CC(C)CNC(=O)c1c(N)n(Cc2ccco2)c2nc3ccccc3nc12`, the Potency was inconclusive: 50.1 µM [activator, single point]. With `COc1ccc(-n2nnnc2C(c2ccccc2OC(F)(F)F)N2CCC(n3c(=O)[nH]c4ccccc43)CC2)cc1` (stereo not drawn) the Potency was inconclusive: 10 µM [activator, full curve]. For `O=C1NC(=O)N(c2ccc(F)cc2)C(=O)/C1=C/c1ccc2c(c1)CCCN2Cc1ccccc1`, the Potency was inconclusive: 12.6 µM [activator, partial curve]. In the case of `C=CCN1C(=O)c2ccccc2Sc2ccc(C(=O)N3CCC4(CC3)OCCO4)cc21`, the Potency is reported as inconclusive: 7.08 µM [activator, full curve]. For `COC(=O)C1=C(c2ccc(F)cc2OCc2ccccc2)C[C@@H]2CC[C@H]1N2C(=O)NCc1ccc2c(c1)OCO2`, the Potency was inconclusive: 31.6 µM [activator, single point]. With `Cc1cc(C)c(-n2c(O)c(/C=N/NC(=O)c3ccncc3)c(=O)[nH]c2=O)c(C)c1` the Potency was inconclusive: 44.7 µM [activator, partial curve, poor fit]. In the case of `CCN(CC)C(=O)c1ccc2c(c1)C1C(Cl)C(Sc3ccccc3[N+](=O)[O-])CC1C(C(=O)O)N2` (stereo not drawn), the Potency is reported as active: 39.8 µM. For `CSCCC(c1nnnn1-c1ccc2c(c1)OCCO2)N1CCC2(CC1)C(=O)NCN2c1ccccc1` (stereo not drawn), the Potency was inconclusive: 5.62 µM [activator, full curve]. With `Cc1oc(-c2ccc(Cl)cc2)nc1CN1C(=O)CN=C(c2ccccc2)c2ccccc21` the Potency was inconclusive: 35.5 µM [activator, single point].
